# Test results taken from US11542311B2, “Fusion protein, preparation method therefor and application thereof in preparing ophthalmic disease treatment, anti-inflammation and anti-tumor medicament” (JIANGSU RONGTAI BIOTECH CO., LTD., priority 2017, dated 2023).
# Tests used:
# human glioma U87 = experiment: MTT assay, proliferation of human glioma U87; format: cell-based; conditions: 48 h
# Protocol: (§1) The MTT assay was used to detect the inhibitory effect of the integrin blocker fusion protein obtained in Example 1 on the proliferation of various tumor cells, including melanoma cell B16F10, gastric cancer cell MGC-803, lung cancer cell A549, liver cancer cell Hep-G2, breast cancer cell MDA-MB-231, colon cancer cell HCT-116, human glioma U87, and cervical cancer cell Hela.
# (§2) The tumor cells were cultured in a 5% CO2 incubator at 37° C. to a density of 90% or more, and collected by trypsinization. The cells were resuspended in the culture liquid and counted under a microscope. The cell concentration was adjusted to 3.0×10^4 cells/mL. The cell suspension was inoculated into a 96-well plate, 100 μL per well, and cultured overnight in a 5% CO2 incubator at 37° C. The fusion proteins I, II, and the positive drug Taxol were diluted with the culture liquid to respective predetermined concentrations. After the cells were fully adhered, each dilution was added to a 96-well plate, 100 μL per well, respectively. The integrin blocker fusion proteins I and II were added as an administration group, Taxol was used as a positive control group, and the culture liquid without any drug was used as a blank control group, and incubated in an 5% CO2 incubator at 37° C. for 48 hours. 20 μL of 5 mg/mL MTT was added to each well of a 96-well plate, and incubation was continued for 4 hours. The medium was aspirated and 100 μL of DMSO per well were added to dissolve. The absorbance was measured at 570 nm with a microplate reader with a reference wavelength of 630 nm, and the proliferation inhibition (PI) was calculated. The formula is as follows: […]
# (§3) where Ntest is the OD value of the test group and Ncontrol is the OD value of the blank control group.
# (§4) The test was repeated 5 times independently. The results obtained from the test were calculated as mean±SD, and statistical t-test was performed. P<0.05 was considered as significant difference, and P<0.01 was considered as an extremely significant difference.
# [1] = tested on: colon cancer cell HCT-116; experiment: MTT assay, proliferation of colon cancer cell HCT-116; format: cell-based; conditions: 48 h
# Protocol: as §1, §2, §3, §4
Molecule,A570 nm/A630 nm ([1]; 1 μg/mL),PI (%) ([1]; 1 μg/mL),A570 nm/A630 nm ([1]; 2 μg/mL),PI (%) ([1]; 2 μg/mL),A570 nm/A630 nm ([1]; 4 μg/mL),PI (%) ([1]; 4 μg/mL),A570 nm/A630 nm ([1]; 8 μg/mL),PI (%) ([1]; 8 μg/mL),A570 nm/A630 nm ([1]; 16 μg/mL),PI (%) ([1]; 16 μg/mL),A570 nm/A630 nm ([1]; 32 μg/mL),PI (%) ([1]; 32 μg/mL),A570 nm/A630 nm ([1]; 64 μg/mL),PI (%) ([1]; 64 μg/mL),A570 nm/A630 nm ([1]; 128 μg/mL),PI (%) ([1]; 128 μg/mL),A570 nm/A630 nm ([1]; 256 μg/mL),PI (%) ([1]; 256 μg/mL),further results
"Protein I: Fc fusion protein Fc-IL4DM-HM3: IgG1-Fc, IL-4 and HM-3 joined by flexible (F) linker; SEQ ID NO: 1 (protein) [gap - human IgG1 Fc]GGGGSGGGGSGGGGSHKCDITLQEIIKTLNSLTEQKTLCTELTVTDIFAASKNTTEKETFCRAATVLRQFYSHHEKDTRCLGATAQQFHRHKQLIRFLKRLDRNLWGLAGLNSCPVKEANQSTLENFLERLKTIMDEKDSKCSSGGGGSGGGGSGGGGSIVRRADRAAVPGGGGRGD",0.6640 ± 0.0246,2.40%,0.6412 ± 0.0181,5.75%,0.6089 ± 0.0131,10.50%,0.5503 ± 0.0319,19.11%,0.5285 ± 0.0222,22.31%,0.4529 ± 0.0190,33.43%,0.3726 ± 0.0190,45.23%,0.2826 ± 0.0151,58.46%,0.2071 ± 0.0271,69.56%,A570 nm/A630 nm (human glioma U87; 1 μg/mL): 0.7370 ± 0.0190; PI (%) (human glioma U87; 1 μg/mL): 4.52%; A570 nm/A630 nm (human glioma U87; 2 μg/mL): 0.6916 ± 0.0275; PI (%) (human glioma U87; 2 μg/mL): 10.40%; A570 nm/A630 nm (human glioma U87; 4 μg/mL): 0.6209 ± 0.0314; PI (%) (human glioma U87; 4 μg/mL): 19.56%; A570 nm/A630 nm (human glioma U87; 8 μg/mL): 0.5377 ± 0.0212; PI (%) (human glioma U87; 8 μg/mL): 30.34%; A570 nm/A630 nm (human glioma U87; 16 μg/mL): 0.4788 ± 0.0366; PI (%) (human glioma U87; 16 μg/mL): 37.97%; A570 nm/A630 nm (human glioma U87; 32 μg/mL): 0.3520 ± 0.0223; PI (%) (human glioma U87; 32 μg/mL): 54.40%; A570 nm/A630 nm (human glioma U87; 64 μg/mL): 0.2330 ± 0.0112; PI (%) (human glioma U87; 64 μg/mL): 69.81%; A570 nm/A630 nm (human glioma U87; 128 μg/mL): 0.1346 ± 0.0283; PI (%) (human glioma U87; 128 μg/mL): 82.56%; A570 nm/A630 nm (human glioma U87; 256 μg/mL): 0.0820 ± 0.0230; PI (%) (human glioma U87; 256 μg/mL): 89.38%
"Protein II: Fc fusion protein Fc-IL4DM-HM3: IgG1-Fc, IL-4 and HM-3 joined by rigid (R) linker; SEQ ID NO: 2 (protein) [gap - human IgG1 Fc]AEAAAKEAAAKEAAAKEAAAKAHKCDITLQEIIKTLNSLTEQKTLCTELTVTDIFAASKNTTEKETFCRAATVLRQFYSHHEKDTRCLGATAQQFHRHKQLIRFLKRLDRNLWGLAGLNSCPVKEANQSTLENFLERLKTIMDEKDSKCSSAEAAAKEAAAKEAAAKEAAAKAIVRRADRAAVPGGGGRGD",0.6610 ± 0.0280,2.84%,0.6440 ± 0.0143,5.34%,0.6112 ± 0.0495,10.16%,0.5615 ± 0.0125,17.46%,0.5416 ± 0.0375,20.39%,0.4889 ± 0.0109,28.13%,0.4000 ± 0.0020,41.20%,0.3126 ± 0.0255,54.05%,0.2324 ± 0.0283,65.84%,–
